# Test results reported in publication PMC4336329 (PLoS ONE, 2015).
# The campaign covered roughly 310,000 compounds. About 2,200 (0.71%) showed an effect of 50% or more. Effects have a minus sign here. This is one part of the list.
# Molecular target: human ether-à-go-go-related gene (hERG) potassium channel (human, UniProt Q12809)
# Assay: primary screen, population patch clamp on CHO cells stably expressing hERG
# human ether-à-go-go-related gene (hERG) potassium channel, sequence (Q12809 whole entry, looked up): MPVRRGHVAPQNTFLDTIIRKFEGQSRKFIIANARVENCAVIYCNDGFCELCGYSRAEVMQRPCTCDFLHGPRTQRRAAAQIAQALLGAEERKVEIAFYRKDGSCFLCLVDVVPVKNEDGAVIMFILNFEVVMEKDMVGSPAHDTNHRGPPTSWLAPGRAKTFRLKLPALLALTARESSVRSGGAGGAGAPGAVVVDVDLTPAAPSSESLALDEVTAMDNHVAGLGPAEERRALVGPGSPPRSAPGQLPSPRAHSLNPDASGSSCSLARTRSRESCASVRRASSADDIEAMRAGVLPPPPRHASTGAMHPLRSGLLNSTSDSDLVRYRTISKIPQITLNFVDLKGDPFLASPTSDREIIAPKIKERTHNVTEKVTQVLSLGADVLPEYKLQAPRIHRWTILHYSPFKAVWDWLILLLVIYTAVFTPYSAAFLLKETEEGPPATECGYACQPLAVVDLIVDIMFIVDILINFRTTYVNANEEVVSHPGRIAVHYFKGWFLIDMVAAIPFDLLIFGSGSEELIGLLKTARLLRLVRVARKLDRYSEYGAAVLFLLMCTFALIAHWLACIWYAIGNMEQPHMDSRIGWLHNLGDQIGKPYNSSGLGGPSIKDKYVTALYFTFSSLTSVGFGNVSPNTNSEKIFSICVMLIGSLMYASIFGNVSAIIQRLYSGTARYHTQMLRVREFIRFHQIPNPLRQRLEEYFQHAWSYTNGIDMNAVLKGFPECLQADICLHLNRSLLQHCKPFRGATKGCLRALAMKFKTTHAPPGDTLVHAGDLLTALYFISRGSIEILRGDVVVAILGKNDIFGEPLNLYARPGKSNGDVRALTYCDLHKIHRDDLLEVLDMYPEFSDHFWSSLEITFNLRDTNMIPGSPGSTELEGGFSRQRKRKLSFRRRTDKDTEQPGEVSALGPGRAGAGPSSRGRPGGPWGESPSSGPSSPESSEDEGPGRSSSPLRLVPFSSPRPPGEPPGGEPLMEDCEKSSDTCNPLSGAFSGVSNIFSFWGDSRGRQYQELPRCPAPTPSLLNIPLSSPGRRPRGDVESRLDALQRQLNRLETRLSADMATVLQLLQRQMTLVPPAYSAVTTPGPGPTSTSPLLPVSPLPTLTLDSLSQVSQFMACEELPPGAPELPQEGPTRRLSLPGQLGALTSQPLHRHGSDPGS
row,Structure (SMILES),"hERG current change (%, negative = inhibition) at 1uM"
1,CCOc1ccc(OCC)c(NC(=O)C(NS(=O)(=O)c2ccc3c(c2)oc(=O)n3C)C(C)C)c1 (stereo not drawn),8.84%
2,CCC(C)Sc1ccc(-c2nc3ccc(C)cn3c2NC2CCCCC2)cc1.O=C(O)C(F)(F)F (stereo not drawn),0.404%
3,CCOc1ccc(NC(=O)C2CCCN(S(=O)(=O)c3ccc4c(c3)CCCN4C(C)=O)C2)cc1 (stereo not drawn),3.82%
4,Cc1ccc(-n2ncc3c2CC(C)(C)CC3NC(=O)CCc2ccc(=O)[nH]n2)cc1 (stereo not drawn),15%
5,Cc1nnc(NC(=O)CSc2nccn2Cc2ccc(F)cc2)s1,4.39%
6,CCCn1c(SCC(=O)Nc2nccs2)nnc1-c1cccnc1,-5.67%
7,Cc1ccccc1C(=O)NNC(=O)c1cccc(Br)c1,11.2%
8,C=CCN1C(=O)c2ccc(C(=O)N(CCC)CC(=O)Nc3ccccc3C)cc2C1=O,15.8%
9,Cc1ccc(OCc2nnc(SCc3nc4ccccc4[nH]3)n2Cc2ccco2)cc1,1.25%
10,COc1ccc(OCCn2cncn2)cc1,14.3%
11,O=C1OC(NC(=O)c2ccccc2)C(N2CCOCC2)=C1Cl (stereo not drawn),9.35%
12,CCOC(=O)c1[nH]c(C)c(CCC(=O)[O-])c1C.[Na+],9.86%
13,C/C(=N\NC(=O)c1nnn(-c2nonc2N)c1COc1ccc(F)cc1)c1ccc(Cl)cc1,15.3%
14,COc1cc(C(=O)Nc2cc(Cl)ccc2-n2cncn2)ccc1OC(F)F,19.2%
15,CC(C)(C)c1ccc(C(=O)N2CCN(CCNC(=O)C(=O)NCc3ccc(Cl)cc3)CC2)cc1,-1.42%
16,C=CCNCC(O)COc1ccc(C(C)=O)cc1OC.O=C(O)C(=O)O (stereo not drawn),2.72%
17,CCC(=O)Nc1cccc(-c2nnc(-c3cccc(NC(=O)CC)c3)o2)c1,9.46%
18,CCOc1ccc(NC(=O)CCn2cccc2)cc1,16.7%
19,COc1ccc(Cl)cc1N1C(=O)[C@@H]2C(c3cccc(OC)c3OC)=NO[C@@H]2C1=O,11.7%
20,Nc1ccc(CNc2ncn[nH]2)cc1,7.59%
21,CC/C(=N\NC(=O)c1ccccc1)c1c(O)n(C2CCCCC2)c(=O)[nH]c1=O,6.6%
22,COC(=O)Cn1c(=NC(=O)C2COc3ccccc3O2)sc2cc(S(N)(=O)=O)ccc21 (stereo not drawn),12%
23,Cc1onc(-c2c(Cl)cccc2Cl)c1C(N)=O,11%
24,Cc1nn(-c2ccc(F)cc2)c(C)c1CN1CCN(Cc2ccccc2)C(CCO)C1 (stereo not drawn),-20.2%
